The supplement of paper PMC12217912
The list shows a part of the results. Sequences were assembled here from the parent chain. Inactive controls read about 0.05.

B1: TEV protease; numbered along this chain (parent)
chain: MGESLFKGPRDYNPISSSICHLTNESDGHTTSLYGIGFGPFIITNKHLFRRNNGTLVVQSLHGVFKVKDTTTLQQHLVDGRDMIIIRMPKDFPPFPQKLKFREPQREERICLVTTNFQTKSMSSMVSDTSCTFPSGDGIFWKHWIQTKDGQCGSPLVSTRDGFIVGIHSASNFTNTNNYFTSVPKNFMELLTNQEAQQWVSGWRLNADSVLWGGHKVFMVKPEEPFQPVKEATQL

Variants of: B1
Assay: raw area under fraction-flipped curve 0-4 h after induction (AUC4h, not background-subtracted), DNA-recorder readout of cleavage of the substrate (dimensionless); higher = more cleavage of the substrate by the protease variant
Conditions: temperature: 34 °C; time window: 0-4 h after rhamnose induction
Method: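 In vivo DNA recorder in E. coli TOP10(DE3) ΔrhaA at 34 °C. Each TEVp single-site mutant (parent TEVp 0) is paired with a single-site variant of the 7-mer TEVs (canonical ENLYFQ|S). The substrate sits between flexible linkers in a Bxb1-sfGFP-TEVs-SsrA fusion, so cleavage stabilises Bxb1 and speeds flipping of a recombination array, read by NGS. The value is the raw area under the fraction-flipped curve over 0-4 h after rhamnose induction (AUC4h), with ≥20 reads per time point. It is not background-subtracted; inactive controls average about 0.047.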
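Also: Bxb1 expression induced with 0.2% (w/v) L-rhamnose at OD600 near 0.5, cultures sampled hourly, flipped fraction per protease–substrate barcode pair counted by paired-end Illumina sequencing.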

Variant	area with substrate ENLYAQS	area with substrate ENLYCQS	area with substrate ENLYDQS	area with substrate ENLYEQS	area with substrate ENLYGQS	area with substrate ENLYHQS	area with substrate ENLYIQS	area with substrate ENLYKQS	area with substrate ENLYLQS	area with substrate ENLYMQS	area with substrate ENLYNQS	area with substrate ENLYPQS	area with substrate ENLYQQS	area with substrate ENLYRQS	area with substrate ENLYSQS	area with substrate ENLYVQS	area with substrate ENLYWQS	area with substrate ENLYYQS	area with substrate ENLYTQS
S169M	0.0644	0.0715	0.0766	0.0624	0.058	0.066	0.0663	0.051	0.0517	0.0616	0.065	0.0542	0.0555	0.054	0.0586	0.085	0.0645	0.0567	
S171M	0.0894	0.0338		0.0469	0.0604	0.0679	0.0654	0.0609		0.0619	0.0572	0.0577	0.0775		0.0816	0.0653	0.0663		0.0621
N177L	0.0976	0.15	0.047	0.0661	0.0795	0.0628	0.136	0.0769	0.101	0.123	0.066	0.0853	0.0774		0.0935		0.0842	0.0388	
N177S	0.0679		0.0397	0.0535	0.0499	0.0466	0.0805	0.0491	0.0624	0.0704	0.0511	0.0634	0.0416	0.0507	0.065	0.0877	0.0418	0.0484	0.0567
V183H	0.0639		0.0528	0.0549	0.0553	0.0626	0.0668	0.0511	0.0738	0.0616	0.0509	0.0548		0.04	0.0599	0.103	0.0584	0.0331	
K185G	0.089			0.0631		0.0703		0.0428			0.0693	0.0761				0.111	0.0925		
L190M	0.0825	0.0839	0.0551	0.0638	0.0618	0.0728		0.0535		0.0845	0.0938	0.086			0.0681	0.106	0.0931	0.0614	0.0686
L191F	0.0485	0.0679	0.0561	0.0674	0.0595	0.0621	0.113	0.0633		0.0864	0.0904	0.0598		0.0585	0.059	0.118	0.0666		0.0642
L191K	0.115		0.0603	0.0569	0.0478	0.0593	0.0589	0.0592	0.0476	0.0685	0.06	0.0673	0.0571	0.0491	0.0575	0.0492	0.0564	0.0605	
L191Y	0.0533		0.0543	0.0712	0.0729	0.0693		0.0654			0.0448	0.0682	0.0621		0.0593	0.0704		0.0645	0.0699
Q197D	0.0383	0.0857	0.0661	0.0632	0.0787	0.055		0.0504		0.107		0.066	0.052	0.0548	0.0746	0.11	0.0678	0.0557	0.0811
W199E	0.0604	0.069	0.0708	0.0596	0.0644	0.0571	0.0725	0.0608		0.063	0.0706	0.0483	0.0657	0.0573					0.0695
W199N	0.0581			0.0623	0.0569	0.0571	0.0624	0.0607	0.0724	0.0569		0.069		0.058		0.0675	0.0579	0.0598	0.0461
G202Q	0.0615		0.0541	0.0676	0.0622	0.0677	0.0798	0.05		0.0694	0.0627	0.0593	0.0678	0.0657	0.0561	0.0651	0.0551		0.0398
W203G	0.0766		0.056	0.0502	0.0636	0.0623	0.0598	0.0629		0.0602	0.0583	0.0608	0.0723	0.0586	0.0562	0.0692	0.0518	0.0408	0.0674
R204L	0.0365	0.0817	0.0662	0.0649	0.0635	0.066	0.144		0.0664	0.083	0.0673	0.065		0.0641	0.0695	0.109	0.0701		
L205M	0.102		0.0575	0.0736	0.0721	0.0678	0.1	0.036	0.0892	0.0882	0.0514	0.0839	0.0693		0.0724	0.0856	0.0854	0.0828	0.0934
S209V	0.0861			0.0707	0.0525	0.112		0.0617	0.126		0.0669	0.0522		0.0649	0.0904		0.0946		0.0506
V217C	0.0765	0.0753	0.0621	0.0643	0.073	0.0557	0.0982	0.0458		0.0639	0.0605	0.0635	0.06	0.0658	0.0766	0.0991	0.0662		0.0947
V217P	0.0583		0.0705	0.0646	0.0585	0.0638	0.0807			0.0546	0.0615	0.0694	0.0603	0.0583	0.0804	0.0615	0.0587	0.0586	0.0556
M219S	0.0746		0.0636	0.072	0.063	0.0693	0.0607	0.0719	0.0779	0.0795	0.0632	0.0664			0.0563	0.0806	0.0908		
V220M	0.0826	0.076	0.0625	0.0586	0.0714	0.0779	0.123			0.0701	0.0517	0.0752	0.0548	0.0582	0.0756	0.141	0.0668	0.0585	
V220W	0.0692		0.0537	0.0751	0.0621	0.0642	0.123	0.0641		0.0674	0.0571	0.0619		0.0618	0.0695	0.096		0.0444	0.0668
